According to the supplement of paper PMC12217912:
The list shows a part of the results. Sequences were assembled here from the parent chain. Values near 0.05 are background.

B1: TEV protease; numbered along this chain (parent)
chain: MGESLFKGPRDYNPISSSICHLTNESDGHTTSLYGIGFGPFIITNKHLFRRNNGTLVVQSLHGVFKVKDTTTLQQHLVDGRDMIIIRMPKDFPPFPQKLKFREPQREERICLVTTNFQTKSMSSMVSDTSCTFPSGDGIFWKHWIQTKDGQCGSPLVSTRDGFIVGIHSASNFTNTNNYFTSVPKNFMELLTNQEAQQWVSGWRLNADSVLWGGHKVFMVKPEEPFQPVKEATQL

Variants of: B1
Assay: raw area under fraction-flipped curve 0-4 h after induction (AUC4h, not background-subtracted), DNA-recorder readout of cleavage of the substrate (dimensionless); higher = more cleavage of the substrate by the protease variant
Settings: temperature: 34 °C; time window: 0-4 h after rhamnose induction
Method: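 In vivo DNA recorder in E. coli TOP10(DE3) ΔrhaA at 34 °C. Each TEVp single-site mutant (parent TEVp 0) is paired with a single-site variant of the 7-mer TEVs (canonical ENLYFQ|S). The substrate sits between flexible linkers in a Bxb1-sfGFP-TEVs-SsrA fusion, so cleavage stabilises Bxb1 and speeds flipping of a recombination array, read by NGS. The value is the raw area under the fraction-flipped curve over 0-4 h after rhamnose induction (AUC4h), with ≥20 reads per time point. It is not background-subtracted; inactive controls average about 0.047.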
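Note: Bxb1 expression induced with 0.2% (w/v) L-rhamnose at OD600 near 0.5, cultures sampled hourly, flipped fraction per protease–substrate barcode pair counted by paired-end Illumina sequencing.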

Row | Variant | area with substrate DNLYFQS | area with substrate GNLYFQS | area with substrate LNLYFQS | area with substrate MNLYFQS | area with substrate PNLYFQS | area with substrate YNLYFQS | area with substrate HNLYFQS | area with substrate KNLYFQS | area with substrate NNLYFQS | area with substrate SNLYFQS
1 | L205Q | 0.0458 | 0.0664 | 0.056 | 0.0588 | 0.0495 | 0.0583 | – | – | – | –
2 | L205P | 0.0322 | – | – | – | 0.0577 | – | 0.0397 | 0.0562 | 0.0599 | 0.0605
3 | G166Y | 0.0551 | – | – | – | – | – | 0.0533 | – | 0.0712 | –
4 | G166H | 0.0684 | – | 0.0503 | 0.0519 | 0.036 | 0.0561 | 0.0589 | 0.0674 | 0.0387 | –
5 | L190I | 0.0773 | – | – | – | – | – | 0.0552 | 0.0778 | 0.0583 | –
6 | L190K | 0.0771 | 0.0596 | 0.0698 | 0.0633 | 0.0603 | 0.0565 | 0.0738 | 0.0752 | 0.0669 | –
7 | L190V | 0.0797 | – | – | – | 0.0604 | 0.0681 | – | 0.0662 | 0.0663 | 0.0892
8 | S158K | 0.0531 | – | 0.0646 | 0.0556 | – | 0.019 | 0.0765 | 0.0458 | 0.04 | 0.0415
9 | S158Q | 0.0559 | 0.0408 | – | 0.0611 | 0.0484 | – | 0.0609 | – | 0.0421 | 0.0641
10 | S182D | 0.0752 | 0.0681 | 0.0479 | – | – | – | 0.0572 | – | – | –
11 | E195W | 0.0555 | – | 0.0706 | – | – | – | 0.056 | – | – | –
12 | E195Q | 0.0799 | – | 0.0599 | – | 0.0802 | 0.0578 | 0.0615 | 0.0972 | – | –
13 | G153D | 0.0467 | 0.0481 | – | 0.0263 | 0.049 | – | – | – | – | 0.0595
14 | I167L | 0.0603 | – | 0.0579 | 0.0619 | 0.0616 | 0.0624 | 0.053 | – | – | –
15 | I167Q | 0.0568 | – | 0.0558 | 0.0674 | 0.0492 | 0.0601 | 0.0517 | 0.0669 | – | 0.0569
16 | T159W | 0.0809 | – | – | – | 0.046 | – | – | – | – | –
17 | T174M | 0.0587 | 0.106 | – | – | 0.0754 | – | 0.0654 | – | – | –
18 | Q194D | 0.0632 | 0.0783 | – | – | 0.0774 | – | 0.0689 | 0.0717 | 0.0563 | 0.0571
19 | S169V | 0.0541 | – | 0.0665 | 0.061 | 0.0558 | 0.0616 | 0.0615 | 0.0556 | 0.0613 | 0.0649
20 | S169L | 0.0606 | – | 0.0674 | 0.0599 | 0.0614 | 0.0652 | 0.0523 | – | – | 0.0675

Row | Variant | area with substrate DNLYFQS | area with substrate GNLYFQS | area with substrate LNLYFQS | area with substrate MNLYFQS | area with substrate PNLYFQS | area with substrate YNLYFQS | area with substrate HNLYFQS | area with substrate KNLYFQS | area with substrate NNLYFQS | area with substrate SNLYFQS
21 | P155T | 0.074 | – | 0.0671 | 0.0336 | – | 0.0385 | 0.055 | – | – | 0.0495
22 | D149W | 0.0544 | – | 0.0617 | 0.0598 | 0.0596 | – | 0.0579 | 0.0451 | 0.0532 | 0.0676
23 | D149E | 0.0575 | 0.0686 | 0.0486 | 0.0441 | 0.0585 | 0.0567 | 0.0554 | – | – | –
24 | M188G | 0.0773 | 0.0813 | 0.0614 | 0.0783 | – | – | – | 0.0769 | – | 0.0721
25 | M188V | 0.0813 | – | 0.0768 | 0.0936 | – | – | 0.0526 | – | – | 0.067
26 | M188F | 0.0636 | – | – | 0.0579 | – | – | 0.051 | 0.0821 | – | –
27 | M188K | 0.0601 | 0.0712 | 0.0696 | 0.0493 | 0.0693 | – | 0.0623 | 0.0625 | 0.0811 | –
28 | N178P | 0.0653 | 0.0857 | 0.0752 | – | 0.0562 | – | 0.0713 | – | – | –
29 | G150M | 0.0792 | – | – | 0.0796 | 0.0638 | – | 0.0573 | 0.0597 | 0.0575 | 0.045
30 | F180Y | 0.105 | 0.0717 | 0.0591 | 0.0611 | 0.0642 | – | 0.0635 | – | 0.0727 | –
31 | N172D | 0.0744 | 0.0515 | – | 0.0781 | 0.0849 | 0.0624 | 0.0761 | – | – | –
32 | W199A | 0.0672 | – | 0.0683 | 0.0406 | 0.0566 | – | 0.0447 | – | – | 0.076
33 | W199K | 0.0795 | – | 0.0476 | 0.0644 | 0.0717 | 0.0671 | 0.0682 | 0.0543 | – | –
34 | S171W | 0.0551 | – | – | – | – | 0.0602 | 0.0633 | – | – | –
35 | S171R | 0.0684 | – | 0.0655 | 0.102 | 0.0507 | – | 0.119 | – | – | –
36 | F173K | 0.0623 | – | – | – | – | – | 0.0655 | 0.049 | – | 0.0514
37 | F173P | 0.0649 | – | – | 0.0637 | 0.0518 | – | 0.0562 | – | – | 0.0429
38 | Q197H | 0.0621 | 0.0955 | – | 0.06 | 0.0644 | – | 0.064 | – | 0.0763 | 0.0615
39 | S154E | 0.0535 | – | 0.0501 | – | – | – | – | 0.0576 | 0.0498 | –

Same assay, conditions: temperature: 34 °C; time window: 0-4 h after rhamnose induction

Row | Variant | area with substrate WNLYFQS | area with substrate FNLYFQS | area with substrate INLYFQS | area with substrate TNLYFQS | area with substrate RNLYFQS | area with substrate VNLYFQS | area with substrate QNLYFQS
40 | L205P | 0.0857 | – | – | – | – | – | –
41 | G166Y | 0.0569 | 0.0593 | 0.0439 | 0.0432 | – | – | –
42 | G166H | 0.0523 | – | 0.0467 | – | 0.0486 | 0.0474 | –
43 | L190I | 0.0454 | – | – | 0.0683 | – | – | –
44 | L190K | 0.0611 | – | – | 0.0562 | – | 0.0601 | –
45 | L190V | 0.0529 | 0.0699 | 0.0618 | 0.0628 | – | 0.0819 | 0.0724
46 | S158K | 0.0544 | 0.0523 | 0.0313 | 0.0435 | – | – | –
47 | S158Q | 0.0658 | – | 0.0566 | 0.0508 | 0.0737 | – | –
48 | S182D | 0.0594 | – | – | 0.0591 | – | – | –
49 | E195W | 0.0602 | – | – | 0.0716 | – | – | –
50 | E195Q | 0.0706 | – | – | – | – | – | –
51 | G153D | 0.072 | 0.0497 | – | – | – | – | –
52 | I167L | 0.0485 | – | – | 0.0667 | – | 0.0591 | 0.0536
53 | I167Q | 0.0572 | – | 0.0639 | 0.0563 | – | – | –
54 | T159W | – | – | – | – | 0.0708 | 0.0782 | –
55 | T174M | – | – | 0.0462 | – | – | – | –
56 | Q194D | 0.0647 | 0.0421 | 0.0711 | 0.0668 | – | 0.0715 | –
57 | S169V | – | – | 0.061 | 0.0686 | – | – | –

Row | Variant | area with substrate WNLYFQS | area with substrate FNLYFQS | area with substrate INLYFQS | area with substrate TNLYFQS | area with substrate RNLYFQS | area with substrate VNLYFQS | area with substrate QNLYFQS
58 | S169L | – | – | – | 0.0679 | – | – | –
59 | P155T | 0.0462 | – | 0.0588 | – | 0.0532 | – | –
60 | D149W | 0.0566 | – | 0.0641 | 0.0453 | – | – | –
61 | D149E | 0.061 | – | 0.0707 | 0.0672 | – | – | –
62 | M188G | 0.0568 | – | 0.0564 | 0.106 | – | – | –
63 | M188V | 0.0496 | – | – | 0.0486 | – | – | –
64 | M188F | 0.0754 | – | 0.0619 | – | – | – | –
65 | M188K | – | – | 0.0546 | 0.0709 | – | 0.0652 | –
66 | G150M | 0.0642 | – | 0.0549 | 0.0576 | – | – | –
67 | F180Y | 0.0757 | 0.054 | – | 0.0682 | – | 0.063 | –
68 | N172D | 0.0734 | – | – | 0.0733 | 0.078 | – | –
69 | W199A | 0.0628 | – | 0.0445 | – | – | – | –
70 | W199K | – | – | – | 0.0654 | 0.0605 | 0.0599 | –
71 | S171R | – | – | 0.0494 | 0.0799 | – | – | 0.0622
72 | F173P | 0.0558 | – | 0.0472 | – | – | – | 0.0639
73 | Q197H | 0.0609 | – | 0.0611 | 0.0636 | – | – | –
74 | S154E | 0.0465 | 0.0801 | 0.0467 | – | – | – | –
